The values below come from PubChem BioAssay (NCI).

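Dose response: 5 concentrations. Exposure: 48 h. Format: 96-well plates. Endpoint: linear interpolation; highest concentration if not reached. At the GI50, growth is halved. TGI marks complete inhibition of growth.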

The subject of this experiment is NCI-H322M lung. Kind of experiment: NCI anticancer screen, dose series, 48 h.

On to `O=c1nc(Nc2ccc([N+](=O)[O-])cc2O)sc2ccccc12`, for which the GI50 is 7230 nM and the TGI was above 16700 nM.

Take `CN1CCN(Cc2ccc(NC(=O)c3cncc(C#Cc4cnc5ccc(O[C@H]6CCOC6)nn45)c3)cc2C(F)(F)F)CC1`: the GI50 is 441 nM and the TGI turned out to be 1540 nM.

`CC1=C(CCC=NNC(N)=O)C2=C(C)C3(CC3)[C@@](C)(O)C(=O)C2=C1`: the GI50 was 346 nM and the TGI was determined as 1970 nM.
